Source: PubChem BioAssay (NCATS)
Inconclusive means that the source gave no clear call. Such entries were picked first, then a sample of the others. For some of these results: Potencies beside an inconclusive call are fits to weak or partial responses and may not hold up. Active and inactive are the calls of the source. Unless noted, calls follow the shape of the dose curve; as a rule, active = well fitted curve in the direction sought with a large enough effect; inconclusive = small, poorly fitted or top-dose-only effect, or another doubt; inactive = no such curve, though single readings can be large; an effect the other way counts as inactive or inconclusive.

How the values were obtained:
[1] = Primary qHTS for inhibitors of nuclear receptor binding SET domain protein 2 (NSD2) in an isogenic RCH-ACV NSD2 p.E1099K mutant (9B) (AID 1645876); also: nearly all actives have a fitted effect of over 70% in size
[2] = Quantitative High-Throughput drug screen in 47 multiple myeloma cell lines against the NCATS MIPE library collection: AMO1_DSMZ cell viability assay (AID 1918927; also: nearly all actives have a fitted effect of over 30% in size)
Method in brief: (§1)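 Myeloma cells (500 per well) were exposed to MIPE 4.0 compounds by pin transfer and incubated 48 hours at 37C, 5% CO2. Viability was read as ATP by CellTiter-Glo luminescence, normalised to DMSO (100%) and media-only (0%) wells.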

[3] = Quantitative High-Throughput drug screen in 47 multiple myeloma cell lines against the NCATS MIPE library collection: KHM11_PLB cell viability assay (AID 1918962); also: nearly all actives have a fitted effect of over 35% in size
Method in brief: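 CellTiter-Glo luminescence (ATP) after 48 h compound exposure, 37C/5% CO2; 500 cells/well; MIPE 4.0 approved/investigational drugs pinned in; DMSO = 100%, media only = 0% viability.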

[4] = Quantitative High-Throughput drug screen in 47 multiple myeloma cell lines against the NCATS MIPE library collection: JIM1_ECACC cell viability assay (AID 1918964)
Method in brief: as §1

[5] = Quantitative High-Throughput drug screen in 47 multiple myeloma cell lines against the NCATS MIPE library collection: INA6_PLB cell viability assay (AID 1918965; also: nearly all actives have a fitted effect of over 55% in size)
Method in brief: as §1

[6] = Quantitative High-Throughput drug screen in 47 multiple myeloma cell lines against the NCATS MIPE library collection: JJN3_DSMZ cell viability assay (AID 1918966; also: nearly all actives have a fitted effect of over 50% in size)
Method in brief: as §1

[7] = Quantitative High-Throughput drug screen in 47 multiple myeloma cell lines against the NCATS MIPE library collection: KMS20_JCRB cell viability assay (AID 1918973); also: nearly all actives have a fitted effect of over 45% in size
Method in brief: as §1

[8] = Quantitative High-Throughput drug screen in 47 multiple myeloma cell lines against the NCATS MIPE library collection: MMM1_PLB cell viability assay (AID 1918976); settings: MMM1 myeloma cells viability, CellTiter-Glo, 48 h; also: nearly all actives have a fitted effect of over 35% in size
Method in brief: (§2)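 Myeloma cells (500/well) treated with MIPE 4.0 compounds for 48 h at 37 °C, 5% CO2. Viability read as ATP via CellTiter-Glo luminescence after 5 min at RT; DMSO-only wells = 100%, media-only = 0% viability.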

[9] = Quantitative High-Throughput drug screen in 47 multiple myeloma cell lines against the NCATS MIPE library collection: L363_DSMZ cell viability assay (AID 1918984); also: nearly all actives have a fitted effect of over 40% in size
Method in brief: as §2

[10] = Quantitative High-Throughput drug screen in 47 multiple myeloma cell lines against the NCATS MIPE library collection: OCIMY7_PLB cell viability assay (AID 1918987); also: nearly all actives have a fitted effect of over 65% in size
Method in brief: as §2

[11] = Quantitative High-Throughput drug screen in 47 multiple myeloma cell lines against the NCATS MIPE library collection: VP6_DJ cell viability assay (AID 1919867); also: nearly all actives have a fitted effect of over 40% in size
Method in brief: as §2

[12] = Quantitative High-Throughput drug screen in 47 multiple myeloma cell lines against the NCATS MIPE library collection: UTMC2_PLB cell viability assay (AID 1919868); also: nearly all actives have a fitted effect of over 55% in size
Method in brief: as §2

[13] = molecular target: Chromobox protein homolog 1 (Homo sapiens) (UniProt P83916); assay: qHTS Validation Assay for Inhibitors of HP1-beta Chromodomain Interactions with Methylated Histone Tails (AID 488953); also: nearly all actives have a fitted effect of over 50% in size
Method in brief: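 HP1-beta (50 nM) was preincubated 30 min at room temperature with biotinylated H3(1-18)K9me3 peptide (50 nM) in PBS pH 7.4, 0.01% Tween-20, then with compounds 30 min. AlphaScreen signal was read after streptavidin donor/nickel chelate acceptor beads (10 ug/mL final).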

[14] = Nrf2 qHTS screen for inhibitors: Validation (AID 493153; active = well fitted inhibition curve with a large enough effect in the main read-out, with a control signal flat, not every such curve was filed as active; inconclusive = small, poorly fitted or top-dose-only effect, or effect the other way, or a change in a side signal; inactive = no such curve, though single readings can be large or run the other way)
Method in brief: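 A549 cells carrying an ARE-driven firefly luciferase reporter, in 5% FBS OPTI-MEM, were treated with compounds in concentration-response for 18-24 h at 37°C. Viability was read by CellTiter-Fluor fluorescence, then Nrf2 activity by luciferase luminescence.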

[15] = molecular target: N-terminal Xaa-Pro-Lys N-methyltransferase 1 (Homo sapiens) (UniProt Q9BV86); assay: qHTS Assay for Inhibitors of N-terminal methyltransferase 1 (NTMT1): LOPAC validation of the NTMT1 SAHH-coupled ThioGlo3 Assay (AID 1347143); also: nearly all actives have a fitted effect of over 70% in size
Method in brief: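 Fluorescence read-out (excitation 340nm, emission 450nm) of SAH-derived thiol, measured via SAHH coupling and ThioGlo3, taken immediately and after a 30 min room-temperature reaction, then normalized to the background read. Enzyme: NTMT1 at 125nM; cofactor SAM 100uM in the added reagent.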

[16] = qHTS of pediatric cancer cell lines to identify multiple opportunities for drug repurposing: Primary screen for OHS-50 cells (AID 1347103); also: nearly all actives have a fitted effect of over 40% in size
Method in brief: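 Cells (500-1,000/well) rested 5 h, then received compounds for 48 h; metabolically active cells were measured by CellTiter-Glo luminescence. Final concentrations spanned up to 46 µM (MIPE, 11-point) or 0.59 nM-46 µM (NPC, 8-point) in primary screens, 11-point in follow-ups.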

[17] = Quantitative high throughput screen for delayed death inhibitors of the malarial parasite plastid, 48 hour incubation (AID 488752); also: nearly all actives have a fitted effect of over 65% in size
Method in brief: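 Erythrocytes infected with P. falciparum carrying an integrated firefly luciferase reporter (2% hematocrit, 0.1% parasitemia final) were exposed to compounds in RPMI 1640/0.5% Albumax for 48 h at 37 C, 5% CO2. Growth inhibition was scored as reduced luminescence.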

[18] = molecular target: Lysine-specific demethylase 5B (Homo sapiens) (UniProt Q9UGL1); assay: Optimization screen for KDM5B Histone Demethylases FDH coupled qHTS against the LOPAC library (AID 1347166); settings: KDM5B demethylation, FDH-coupled NADH fluorescence (FDH is formaldehyde dehydrogenase); series mostly up to 57.5 µM
Method in brief: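 KDM5BDeltaAP (200nM final) preincubated 10 min with compound, then 12.5uM H3K4Me3, 25uM a-ketoglutarate, ascorbate, Fe(II), NAD+ and FDH added; 50mM HEPES pH 7.5, 0.01% Tween-20. NADH fluorescence (340/450 nm) change over 30 min, room temperature.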

[19] = qHTS Assay for Identification of Small Molecule Agonists for Hypoxia Response Element Signaling Pathway (AID 914; active = well fitted activation curve with a large enough effect in the signal ratio, with a control signal flat, not every such curve was filed as active; inconclusive = small, poorly fitted or top-dose-only effect, or effect the other way, or a change in a side signal; the % refers to the signal ratio); settings: ME-180 HRE-bla reporter, beta-lactamase ratio, CoCl2, 17 h; activation: stronger effect = higher value
Method in brief: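 ME-180 cells carrying an HRE-driven beta-lactamase reporter were treated with compounds in a titration series plus an EC50 level of CoCl2 for 17 h at 37 degrees Celsius; CCF4 readout as the 460nm/530nm ratio gave AC50 values.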

[20] = Quantitative high throughput screen for delayed death inhibitors of the malarial parasite plastid, 96 hour incubation (AID 488745); also: nearly all actives have a fitted effect of over 70% in size
Method in brief: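 P. falciparum carrying an integrated firefly luciferase reporter, grown in erythrocytes (2% hematocrit, 0.1% parasitemia final) in RPMI 1640/0.5% Albumax, was exposed to compound for 96 h (two generations) at 37 C, 5% CO2. Luminescence decrease indicated growth inhibition.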
Potency is read from the fitted curve at half-maximal effect; tags tell the direction and shape of the fitted curve or compound fluorescence and quenching.

Chain of UniProt P83916 (P83916 whole entry, looked up): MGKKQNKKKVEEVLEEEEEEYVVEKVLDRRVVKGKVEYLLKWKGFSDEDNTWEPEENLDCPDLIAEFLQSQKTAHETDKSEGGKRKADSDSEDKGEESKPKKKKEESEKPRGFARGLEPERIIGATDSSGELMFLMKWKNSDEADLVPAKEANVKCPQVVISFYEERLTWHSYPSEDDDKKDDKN
Chain of UniProt Q9UGL1 (Q9UGL1 whole entry, looked up): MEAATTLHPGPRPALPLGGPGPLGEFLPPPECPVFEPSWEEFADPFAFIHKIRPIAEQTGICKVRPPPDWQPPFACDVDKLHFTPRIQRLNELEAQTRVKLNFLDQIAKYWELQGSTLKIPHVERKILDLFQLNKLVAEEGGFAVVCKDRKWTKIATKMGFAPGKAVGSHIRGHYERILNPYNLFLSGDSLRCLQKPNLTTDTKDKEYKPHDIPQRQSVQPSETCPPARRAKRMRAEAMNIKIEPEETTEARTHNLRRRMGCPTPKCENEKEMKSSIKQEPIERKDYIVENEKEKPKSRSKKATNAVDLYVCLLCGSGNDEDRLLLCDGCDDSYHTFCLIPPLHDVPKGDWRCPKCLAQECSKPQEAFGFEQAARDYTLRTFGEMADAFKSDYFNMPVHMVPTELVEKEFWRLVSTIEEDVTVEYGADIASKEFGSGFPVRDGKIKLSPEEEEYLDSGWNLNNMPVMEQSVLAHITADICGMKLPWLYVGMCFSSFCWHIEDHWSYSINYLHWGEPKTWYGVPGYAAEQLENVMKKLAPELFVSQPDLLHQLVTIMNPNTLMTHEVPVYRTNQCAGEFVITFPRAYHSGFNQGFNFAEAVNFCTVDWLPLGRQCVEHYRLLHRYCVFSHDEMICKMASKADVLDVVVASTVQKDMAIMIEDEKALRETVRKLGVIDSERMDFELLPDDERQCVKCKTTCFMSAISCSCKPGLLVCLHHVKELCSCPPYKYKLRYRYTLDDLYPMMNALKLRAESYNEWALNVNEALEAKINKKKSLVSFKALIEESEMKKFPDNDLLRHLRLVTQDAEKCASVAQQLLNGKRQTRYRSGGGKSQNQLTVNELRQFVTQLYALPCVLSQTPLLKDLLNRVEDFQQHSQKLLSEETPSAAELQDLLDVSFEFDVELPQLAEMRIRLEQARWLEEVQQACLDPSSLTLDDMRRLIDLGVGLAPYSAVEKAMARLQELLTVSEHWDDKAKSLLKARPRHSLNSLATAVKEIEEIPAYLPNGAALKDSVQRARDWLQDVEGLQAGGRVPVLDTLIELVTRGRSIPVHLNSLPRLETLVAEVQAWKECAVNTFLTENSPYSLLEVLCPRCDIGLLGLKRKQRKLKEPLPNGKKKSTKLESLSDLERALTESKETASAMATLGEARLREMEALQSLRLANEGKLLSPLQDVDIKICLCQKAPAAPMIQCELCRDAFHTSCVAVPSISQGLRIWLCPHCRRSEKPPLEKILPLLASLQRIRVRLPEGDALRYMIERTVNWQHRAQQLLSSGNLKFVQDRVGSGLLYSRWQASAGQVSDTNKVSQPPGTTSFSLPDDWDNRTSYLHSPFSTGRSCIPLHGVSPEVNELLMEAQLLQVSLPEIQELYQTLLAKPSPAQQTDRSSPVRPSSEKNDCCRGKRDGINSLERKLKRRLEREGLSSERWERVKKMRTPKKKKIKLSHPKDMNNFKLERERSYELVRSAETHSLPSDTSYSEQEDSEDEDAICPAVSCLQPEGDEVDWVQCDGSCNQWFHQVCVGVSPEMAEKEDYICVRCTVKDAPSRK
Chain of UniProt Q9BV86 (Q9BV86 whole entry, looked up): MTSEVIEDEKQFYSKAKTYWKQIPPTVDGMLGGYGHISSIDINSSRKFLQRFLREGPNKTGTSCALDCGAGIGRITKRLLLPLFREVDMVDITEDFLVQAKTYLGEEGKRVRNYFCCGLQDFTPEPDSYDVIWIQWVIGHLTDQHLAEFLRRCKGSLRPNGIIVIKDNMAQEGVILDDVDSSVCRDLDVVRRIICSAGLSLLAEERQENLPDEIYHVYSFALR

## C[Se]CCC(N)C(=O)O (stereo not drawn)
[1]
  Potency: inactive
[2]
  Potency: inconclusive: 0.0076 µM [cytotoxic, full curve, poor fit]
[3]
  Potency: inconclusive: 1520 nM [rising, full curve, poor fit]
[4]
  Potency: inactive
[5]
  Potency: inconclusive: 340 nM [rising, partial curve, poor fit]
[6]
  Potency: inconclusive: 5.4 µM [cytotoxic, full curve, poor fit]
[7]
  Potency: inconclusive: 6.05 µM [cytotoxic, full curve, poor fit]
[8]
  Potency: active: 855 nM
[9]
  Potency: inactive
[10]
  Potency: inconclusive: 17.1 nM [rising, full curve, poor fit]
[11]
  Potency: inconclusive: 34 nM [rising, full curve, poor fit]
[12]
  Potency: inactive

## CCCCC[C@H](CC(=O)NO)C(=O)N[C@H](C(=O)N1CCC[C@H]1CO)C(C)C
[13]
  Potency: inactive
[14]
  Potency: active: 16.4 µM
[15]
  Potency: inactive

## CCCc1ncc(C(=O)O)s1
[1]
  Potency: inactive

## COc1cc2c(cc1OC)C(=O)CC2
[16]
  Potency: inconclusive: 38.9 µM [cytotoxic, partial curve, poor fit]
[1]
  Potency: inconclusive: 26.6 µM [inhibitor, partial curve, poor fit]

## NCCS
[17]
  Potency: inactive
[13]
  Potency: inconclusive: 50.1 µM [inhibitor, partial curve]
[14]
  Potency: inactive

## O=C(O)c1ccc[n+]([O-])c1
[1]
  Potency: inconclusive: 23.7 µM [inhibitor, single point]

## Nc1ccc(C(=O)O)cc1
[16]
  Potency: inactive

## O=C(O)c1ccc(OCCN2CCCCC2)cc1
[16]
  Potency: inactive

## CN1[C@H]2CC(OC(=O)[C@@H](CO)c3ccccc3)C[C@H]1[C@H]1O[C@H]12 (stereo partly drawn)
[16]
  Potency: inactive
[2]
  Potency: inactive
[3]
  Potency: inconclusive: 6.2 nM [rising, full curve]
[4]
  Potency: inconclusive: 0.0062 µM [cytotoxic, full curve, poor fit]
[5]
  Potency: inconclusive: 7 nM [cytotoxic, full curve, poor fit]
[6]
  Potency: inconclusive: 0.0883 µM [rising, full curve, poor fit]
[8]
  Potency: inconclusive: 62.5 nM [rising, full curve, poor fit]
[9]
  Potency: inactive
[10]
  Potency: inactive
[11]
  Potency: inconclusive: 4.4 nM [rising, full curve, poor fit]
[12]
  Potency: inconclusive: 1.8 nM [rising, full curve, poor fit]

## CCN(CC)CC(=O)Nc1c(C)cccc1C(=O)OC
[1]
  Potency: inactive

## O=C(O)c1cccnc1C(=O)O
[17]
  Potency: inactive
[13]
  Potency: inconclusive: 2.82 µM [inhibitor, partial curve]

## C[C@@H]1[C@H](O)[C@@H](C)C=CC=CC=CC=CC=CC=CC=C[C@H](O[C@@H]2O[C@H](C)[C@H](O)[C@H](N)[C@@H]2O)C[C@@H]2O[C@](O)(C[C@@H](O)C[C@@H](O)[C@H](O)CC[C@@H](O)C[C@@H](O)CC(=O)O[C@H]1C)C[C@H](O)[C@@H]2C(=O)O
[2]
  Potency: inconclusive: 33.2 µM [cytotoxic, single point]
[3]
  Potency: inconclusive: 7.4 nM [rising, full curve, poor fit]
[4]
  Potency: inconclusive: 26.4 µM [rising, single point]
[5]
  Potency: inconclusive: 37200 nM [cytotoxic, single point]
[6]
  Potency: inconclusive: 37.2 µM [rising, partial curve, poor fit]
[7]
  Potency: inconclusive: 1.66 µM [cytotoxic, partial curve, poor fit]
[8]
  Potency: inconclusive: 3.3 nM [rising, full curve, poor fit]
[9]
  Potency: inconclusive: 9.3 nM [rising, full curve, poor fit]
[12]
  Potency: inconclusive: 2960 nM [cytotoxic, full curve, poor fit]

## CCOC(N)=O
[1]
  Potency: inactive

## CC(O)C(O)[C@H]1CNc2nc(N)[nH]c(=O)c2N1 (stereo partly drawn)
[14]
  Potency: inconclusive: 20.6 µM [inhibitor, partial curve, poor fit]
[15]
  Potency: active: 28.2 µM
[18]
  Potency: inconclusive: 25.1 µM [inhibitor, partial curve, poor fit]

## CC(C)=CCc1c2c(c3occ(-c4ccc(O)c(O)c4)c(=O)c3c1O)C=CC(C)(C)O2
[19]
  Potency: inconclusive: 3.98 µM [inhibitor, single point]

## C=C[C@@H]1CN2CC[C@@H]1C[C@H]2[C@H](O)c1ccnc2ccc(OC)cc12
[20]
  Potency: active: 0.0329 µM
[17]
  Potency: active: 0.0928 µM
[18]
  Potency: inconclusive: 28.2 µM [inhibitor, partial curve, poor fit]

## Cn1cc(C(F)(F)F)nc1-c1ccc(OCC(O)CNCCOc2ccc(O)c(C(N)=O)c2)cc1 (stereo not drawn)
[20]
  Potency: inconclusive: 18.5 µM [inhibitor, single point]
[17]
  Potency: inconclusive: 18.5 µM [inhibitor, single point]
[18]
  Potency: inactive
